According to the supplement of paper PMC3334620:
The full ranking holds about 33,000 sequences; the median of “E-score (-0.5 to 0.5)” is about -0.035, and the highest 2% start at about 0.35. Some of the results follow.

Target: T1, Pdr3 (UniProt P33200)
T1 sequence: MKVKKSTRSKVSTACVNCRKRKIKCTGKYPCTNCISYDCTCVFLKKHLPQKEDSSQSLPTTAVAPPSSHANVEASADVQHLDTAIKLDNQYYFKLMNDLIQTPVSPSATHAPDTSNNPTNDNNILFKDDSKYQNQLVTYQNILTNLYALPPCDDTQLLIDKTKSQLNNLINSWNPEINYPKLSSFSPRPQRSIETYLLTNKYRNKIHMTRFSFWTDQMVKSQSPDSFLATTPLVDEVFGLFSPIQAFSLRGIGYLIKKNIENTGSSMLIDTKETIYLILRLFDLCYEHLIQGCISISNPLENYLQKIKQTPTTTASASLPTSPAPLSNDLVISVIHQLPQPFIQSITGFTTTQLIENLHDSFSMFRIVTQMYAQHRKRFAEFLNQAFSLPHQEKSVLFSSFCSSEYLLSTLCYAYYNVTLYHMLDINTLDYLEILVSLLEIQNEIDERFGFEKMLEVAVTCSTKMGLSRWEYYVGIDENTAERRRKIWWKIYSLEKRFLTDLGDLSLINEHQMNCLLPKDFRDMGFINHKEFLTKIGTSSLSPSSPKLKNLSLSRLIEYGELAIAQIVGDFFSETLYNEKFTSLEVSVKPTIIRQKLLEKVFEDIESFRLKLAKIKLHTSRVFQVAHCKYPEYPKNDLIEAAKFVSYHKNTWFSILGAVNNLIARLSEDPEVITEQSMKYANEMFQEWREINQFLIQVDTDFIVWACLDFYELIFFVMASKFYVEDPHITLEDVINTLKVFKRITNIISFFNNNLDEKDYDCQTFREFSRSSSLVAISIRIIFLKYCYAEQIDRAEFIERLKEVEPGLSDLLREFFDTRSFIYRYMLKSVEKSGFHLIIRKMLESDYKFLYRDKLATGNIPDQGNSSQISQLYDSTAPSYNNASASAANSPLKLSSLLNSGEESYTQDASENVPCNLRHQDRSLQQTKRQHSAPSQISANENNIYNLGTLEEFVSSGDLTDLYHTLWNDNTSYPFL
Experiment: PBM E-score (8-mer binding enrichment) (E-score (-0.5 to 0.5)); higher = stronger / more preferred TF binding; most listed sequences are background and not binding sites
Details: protein concentration: 200 nM; construct: GST-full length
How it was run: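 Full-length yeast transcription factors or their DNA-binding domains, GST-tagged and expressed with PURExpress, were applied at about 100-200 nM to universal all-10-mer Agilent arrays. These arrays had been made double-stranded by primer extension on fresh or once-stripped slides. Detection used fluorescent anti-GST, normalisation used masliner, and E-scores for ungapped eight-base words pooled with reverse complements came from the Universal PBM Analysis Suite.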

| Sequence | PBM E-score |
| --- | --- |
| AGGCCAGA | 0.03 |
| ATTACTTA | 0.119 |
| CTTATTTC | 0.0132 |
| CGTTACCA | -0.149 |
| CCGTACCA | 0.218 |
| AACCCGCG | 0.431 |
| CGGTGACA | 0.189 |
| AACATGTG | -0.00722 |
| CATAGCAC | -0.0394 |
| CCCCGACG | 0.29 |
| CTAAACAG | -0.168 |
| CTAGACGC | -0.112 |
| CTAAAGAG | -0.217 |
| GGGGTCTA | 0.113 |
| GTATCCCA | -0.125 |
| CACTACTA | -0.00853 |
| AAAGGCAA | -0.0369 |
| ATTCGCAA | 0.0328 |
| CACCCATG | -0.0494 |
| ACAGAAAA | 0.0337 |
| AGATCATA | 0.0299 |
| CCGCAAGA | 0.198 |

| Sequence | PBM E-score |
| --- | --- |
| AATATAGA | -0.142 |
| AAACTCCT | -0.184 |
| GCATAGCA | -0.116 |
| AGGTGCAC | 0.0686 |
| AAGTTTAT | 0.146 |
| GACCTTGC | -0.0483 |
| GTTACAGA | -0.12 |
| ATCTCTCG | 0.108 |
| CCCACGCC | -0.256 |
| ATACGAAT | -0.186 |
| TCGATTCA | -0.103 |
| CCTCATCA | -0.0597 |
| GTAAAGAA | -0.0704 |
| CGAATGAC | 0.212 |
| CGTAGCTC | -0.0575 |
| AAGAAGGC | -0.163 |
| CATTTAAG | -0.195 |
| GGGAATTA | 0.118 |
| GACGCCTC | -0.0418 |
| CACTCTAA | -0.0846 |
| ACCGTTAC | -0.0675 |
| GCAGTTAC | 0.0186 |

| Sequence | PBM E-score |
| --- | --- |
| CATTATAG | 0.0527 |
| GGCAGGGA | -0.0639 |
| ACGCGACC | -0.0942 |
| CAATCGCG | 0.0713 |
| CGTCGAGC | -5e-05 |
| TAACCCAA | -0.112 |
| TCATGGCA | -0.102 |
| CCCAATTC | 0.0979 |
| AGTAAGGA | -0.0722 |
| ATGACTTC | -0.041 |
| CGCAAGCC | 0.128 |
| ACTTTCCT | -0.151 |
| GACGGCAA | 0.17 |
| GTGACTTA | -0.223 |
| ACGCCTGA | -0.148 |
| CATTTGGC | -0.0213 |
| AAGGTAAG | -0.114 |
| TATGCGCA | 0.0456 |
| GGCAAAGA | 0.0107 |
| ACACGTCG | -0.115 |
| GAGTGGCC | 0.0648 |
| AATGGTTC | 0.00276 |

| Sequence | PBM E-score |
| --- | --- |
| AGTGCGTG | -0.041 |
| GACCGAAC | 0.111 |
| ATGAGACA | 0.0105 |
| GCATCGCC | 0.112 |
| AGTAGTAC | 0.0868 |
| CAATAAGC | 0.0303 |
| ATATGAGC | -0.00823 |
| GGCATACC | -0.0447 |
| AAGGTTAT | -0.0398 |
| AACCGAGT | -0.0335 |
| CAAAGCTG | 0.0146 |
| CCTGCGTA | -0.12 |
| AACTGTTA | -0.178 |
| GCTTTAGA | -0.238 |
| AGGATATA | -0.0249 |
| CCAGTGTA | -0.0646 |
| ACAGCATG | 0.0163 |
| AATAGCCT | -0.161 |
| TCAGTTAA | -0.154 |
| ACTGCATG | -0.0506 |
| CCATCTGA | -0.0777 |
| CAAGCAAA | -0.0569 |

| Sequence | PBM E-score |
| --- | --- |
| TTCAAAAA | -0.0428 |
| TAAGCTTA | -0.0256 |
| CACACATC | -0.152 |
| GTCGGACA | 0.218 |
| TGGAGACA | -0.147 |
| CGGGACAC | 0.245 |
| CAATGTTA | -0.17 |
| AAAACTGG | 0.0632 |
| ACCTCGCC | -0.0532 |
| ACAGCACT | -0.116 |
| TATACATA | -0.162 |
| CGAAGCAC | 0.0235 |
| GGCGACCA | -0.174 |
| GGCTGTTA | 0.0369 |
| GTAGAACA | -0.263 |
| AACTAATT | 0.0698 |
| CGTCGTTA | 0.0289 |
| GCTTTCTA | 0.0134 |
| CACACAAG | -0.0692 |
| GCGTGCGA | -0.0633 |
| GGAGGAAA | 0.0123 |
| GTGCTGCA | -0.00698 |
